# The list shows a part of the results.
# B1: Gal 8 (Mus musculus), Q9JL15 (protein)
# chain: MGGSHHHHHHGMASMLSLNNLQNIIYNPIIPYVGTITEQLKPGSLIVIRGHVPKDSERFQVDFQLGNSLKPRADVAFHFNPRFKRSSCIVCNTLTQEKWGWEEITYDMPFRKEKSFEIVFMVLKNKFQVAVNGRHVLLYAHRISPEQIDTVGIYGKVNIHSIGFRFSSASALPHTLGDLQSMETSALGLTQINRENIQKPGKLQLSLPFEARLNASMGPGRTVVIKGEVNTNARSFNVDLVAGKTRDIALHLNPRLNVKAFVRNSFLQDAWGEEERNITCFPFSSGMYFEMIIYCDVREFKVAINGVHSLEYKHRFKDLSSIDTLSVDGDIRLLDVRSW
# Assays:
# Assay in all cases: glycan array binding signal (z-score within array); higher = stronger binding
# Settings in all cases: glycan notation: IUPAC condensed, linker removed
# [1] = biological target: Gal(b1-4)GlcNAc(b1-3)Gal(b1-4)GlcNAc(b1-3)[Gal(b1-4)GlcNAc(b1-3)Gal(b1-4)GlcNAc(b1-6)]GalNAc
# Method in brief: (§1)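 Arrays were curated from the Consortium for Functional Glycomics database, 3228 in total, and kept only where the protein sequence was available. Binding is expressed as a within-array Z-score. This score was averaged across arrays of the same protein sequence at different concentrations or buffers and across linkers, and negative values can be read as non-binding.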
# [2] = biological target: Gal(b1-4)GlcNAc(b1-3)Gal(b1-4)GlcNAc(b1-6)[Gal(b1-3)]GalNAc
# Method in brief: as §1
# [3] = biological target: Gal(b1-4)GlcNAc(b1-3)Gal(b1-4)[Fuc(a1-3)]GlcNAc(b1-3)Gal(b1-4)[Fuc(a1-3)]GlcNAc
# Method in brief: as §1
# [4] = biological target: Gal(b1-4)GlcNAc(b1-3)GalNAc
# Method in brief: as §1
# [5] = biological target: Gal(b1-4)GlcNAc(b1-3)[Fuc(a1-3)GlcNAc(b1-6)]Gal(b1-4)Glc
# Method in brief: as §1
# [6] = biological target: Gal(b1-4)GlcNAc(b1-3)[Gal(b1-4)GlcNAc(b1-6)]Gal(b1-4)GlcNAc
# Method in brief: as §1
# [7] = biological target: Gal(b1-4)GlcNAc(b1-3)[GlcNAc(b1-6)]Gal(b1-4)GlcNAc
# Method in brief: as §1
# [8] = biological target: Gal(b1-4)GlcNAc(b1-6)Gal(b1-4)GlcNAc
# Method in brief: as §1
# [9] = biological target: Gal(b1-4)GlcNAc(b1-6)GalNAc
# Method in brief: as §1
# [10] = biological target: Gal(b1-4)GlcNAc(b1-6)[Gal(b1-3)]GalNAc
# Method in brief: as §1
# [11] = biological target: Gal(b1-4)GlcNAc(b1-6)[Gal(b1-4)GlcNAc(b1-3)]GalNAc
# Method in brief: as §1
# Gal(b1-4)GlcNAc6P = biological target: Gal(b1-4)GlcNAc6P
# Method in brief: as §1
# Gal(b1-6)Gal = biological target: Gal(b1-6)Gal
# Method in brief: as §1
# Gal3S(b1-3)GalNAc = biological target: Gal3S(b1-3)GalNAc
# Method in brief: as §1
# Gal3S(b1-3)GlcNAc = biological target: Gal3S(b1-3)GlcNAc
# Method in brief: as §1
# [12] = biological target: Gal3S(b1-3)[Fuc(a1-4)]GlcNAc
# Method in brief: as §1
# Gal3S(b1-4)Glc = biological target: Gal3S(b1-4)Glc
# Method in brief: as §1
# Gal3S(b1-4)Glc6S = biological target: Gal3S(b1-4)Glc6S
# Method in brief: as §1
# Gal3S(b1-4)GlcNAc = biological target: Gal3S(b1-4)GlcNAc
# Method in brief: as §1
# [13] = biological target: Gal3S(b1-4)[Fuc(a1-3)]Glc6S
# Method in brief: as §1
# [14] = biological target: Gal3S(b1-4)[Fuc(a1-3)]GlcNAc
# Method in brief: as §1
# [15] = biological target: Gal3S(b1-4)[Fuc(a1-3)]GlcNAc6S
# Method in brief: as §1
# Gal3S4S(b1-4)GlcNAc = biological target: Gal3S4S(b1-4)GlcNAc
# Method in brief: as §1
# Gal3S6S(b1-4)GlcNAc = biological target: Gal3S6S(b1-4)GlcNAc
# Method in brief: as §1
# Gal3S6S(b1-4)GlcNAc6S = biological target: Gal3S6S(b1-4)GlcNAc6S
# Method in brief: as §1
# Gal4S(b1-4)GlcNAc = biological target: Gal4S(b1-4)GlcNAc
# Method in brief: as §1
# Gal4S6S(b1-4)GlcNAc = biological target: Gal4S6S(b1-4)GlcNAc
# Method in brief: as §1
# Gal6P(b1-4)GlcNAc = biological target: Gal6P(b1-4)GlcNAc
# Method in brief: as §1
# Gal6S(b1-3)GlcNAc = biological target: Gal6S(b1-3)GlcNAc
# Method in brief: as §1
# Gal6S(b1-3)GlcNAc6S = biological target: Gal6S(b1-3)GlcNAc6S
# Method in brief: as §1
# Gal6S(b1-4)Glc = biological target: Gal6S(b1-4)Glc
# Method in brief: as §1
# Gal6S(b1-4)Glc6S = biological target: Gal6S(b1-4)Glc6S
# Method in brief: as §1
# Gal6S(b1-4)GlcNAc = biological target: Gal6S(b1-4)GlcNAc
# Method in brief: as §1
# Gal6S(b1-4)GlcNAc6S = biological target: Gal6S(b1-4)GlcNAc6S
# Method in brief: as §1
# GalNAc(a1-3)Gal = biological target: GalNAc(a1-3)Gal
# Method in brief: as §1
# GalNAc(a1-3)GalNAc = biological target: GalNAc(a1-3)GalNAc
# Method in brief: as §1
# [16] = biological target: GalNAc(a1-3)GalNAc(b1-3)Gal(a1-4)Gal(b1-4)Glc
# Method in brief: as §1
binder,measurement,setting,value
B1,glycan array binding signal (z-score),[1],-0.063
same,glycan array binding signal (z-score),[2],0.021
same,glycan array binding signal (z-score),[3],0.069
same,glycan array binding signal (z-score),[4],-0.207
same,glycan array binding signal (z-score),[5],-0.188
same,glycan array binding signal (z-score),[6],0.445
same,glycan array binding signal (z-score),[7],0.061
same,glycan array binding signal (z-score),[8],-0.023
same,glycan array binding signal (z-score),[9],-0.214
same,glycan array binding signal (z-score),[10],0.086
same,glycan array binding signal (z-score),[11],0.001
same,glycan array binding signal (z-score),Gal(b1-4)GlcNAc6P,-0.31
same,glycan array binding signal (z-score),Gal(b1-6)Gal,-0.538
same,glycan array binding signal (z-score),Gal3S(b1-3)GalNAc,-0.246
same,glycan array binding signal (z-score),Gal3S(b1-3)GlcNAc,0.013
same,glycan array binding signal (z-score),[12],-0.497
same,glycan array binding signal (z-score),Gal3S(b1-4)Glc,-0.186
same,glycan array binding signal (z-score),Gal3S(b1-4)Glc6S,0.566
same,glycan array binding signal (z-score),Gal3S(b1-4)GlcNAc,-0.385
same,glycan array binding signal (z-score),[13],-0.498
same,glycan array binding signal (z-score),[14],-0.532
same,glycan array binding signal (z-score),[15],-0.164
same,glycan array binding signal (z-score),Gal3S4S(b1-4)GlcNAc,-0.55
same,glycan array binding signal (z-score),Gal3S6S(b1-4)GlcNAc,-0.533
same,glycan array binding signal (z-score),Gal3S6S(b1-4)GlcNAc6S,-0.495
same,glycan array binding signal (z-score),Gal4S(b1-4)GlcNAc,-0.543
same,glycan array binding signal (z-score),Gal4S6S(b1-4)GlcNAc,-0.538
same,glycan array binding signal (z-score),Gal6P(b1-4)GlcNAc,-0.548
same,glycan array binding signal (z-score),Gal6S(b1-3)GlcNAc,-0.538
same,glycan array binding signal (z-score),Gal6S(b1-3)GlcNAc6S,-0.532
same,glycan array binding signal (z-score),Gal6S(b1-4)Glc,-0.532
same,glycan array binding signal (z-score),Gal6S(b1-4)Glc6S,-0.51
same,glycan array binding signal (z-score),Gal6S(b1-4)GlcNAc,-0.546
same,glycan array binding signal (z-score),Gal6S(b1-4)GlcNAc6S,-0.536
same,glycan array binding signal (z-score),GalNAc(a1-3)Gal,-0.532
same,glycan array binding signal (z-score),GalNAc(a1-3)GalNAc,-0.497
same,glycan array binding signal (z-score),[16],0.576
